Measurements taken from paper PMC7819943, “Rice protein-binding microarrays: a tool to detect cis-acting elements near promoter regions in rice”.
The list shows a part of the results.

Target: T1, OsWOX13 (Oryza sativa, UniProt Q5QMM3 1-267)
T1 sequence: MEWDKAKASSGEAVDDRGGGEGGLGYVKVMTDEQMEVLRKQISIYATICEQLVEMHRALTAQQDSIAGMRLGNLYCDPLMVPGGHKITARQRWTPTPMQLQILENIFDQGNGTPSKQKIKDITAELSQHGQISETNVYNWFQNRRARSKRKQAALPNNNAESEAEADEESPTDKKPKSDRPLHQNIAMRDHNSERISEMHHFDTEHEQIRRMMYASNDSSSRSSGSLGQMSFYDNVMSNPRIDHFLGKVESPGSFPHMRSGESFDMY
Assay: protein-binding microarray (RPBM); PBS, 2% BSA, 51.3 ng/ul salmon testes DNA, 50 uM zinc acetate, 200 nM TF, 25 C, 1 h; high values mean tight binding
Conditions: protein: recombinant; tags: N-terminal polyhistidine and DsRed monomer fusion (pET32a); label: CyDye5-dUTP incorporated in the synthesized complementary strand; 3' TTTTT single-stranded linker to array surface; dsDNA, one strand shown
In short: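 A custom Agilent array was converted to double-stranded form by primer extension with Cy5-dUTP and blocked with 2% BSA. Protein at 200 nM in PBS with 2% BSA, salmon testes DNA and 50 µM zinc acetate was applied for 1 h at 25 °C, followed by washing. The proteins were polyhistidine–DsRed N-terminal fusions of transcription factors, expressed in E. coli BL21-CodonPlus and Ni–NTA-purified. The binding signal is per-feature fluorescence intensity (arbitrary units) from an Axon 4000B scanner.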

Row | Sequence | binding signal
1 | ATGATTTACATTATGAAACGGAGGGAGTAGCATGCAAAAGCGGAGTCACCTAGTGCAG | 24000 fluorescence intensity (a.u.)
2 | ATCCCAGCTTAATTGACCCTATGATCTGACGCCCTTCTCCCGGAGTCACCTAGTGCAG | 22500 fluorescence intensity (a.u.)
3 | TTATAAATTTGAATACCAAATCCAGTTTTCTTGTGGAAGTCGGAGTCACCTAGTGCAG | 9550 fluorescence intensity (a.u.)
4 | ATATATATTAGCTATTAAATTGACTAGATTATTTAGAGGGCGGAGTCACCTAGTGCAG | 27300 fluorescence intensity (a.u.)
5 | ATGGCTGATTGCTGGATGATCATAGATAGCTGCAGGAGATCGGAGTCACCTAGTGCAG | 30500 fluorescence intensity (a.u.)
6 | CACTATCTGATCCTAATTACACACTGATGCAGGGGTAAATCGGAGTCACCTAGTGCAG | 3790 fluorescence intensity (a.u.)
7 | AAGTTGATGAGCTTGATGCACCCGTAGAAATCCATCCCCGCGGAGTCACCTAGTGCAG | 9150 fluorescence intensity (a.u.)
8 | AGTGTTTATTGTCTATTTGGTTTGGAGCTAAATTTTGGCACGGAGTCACCTAGTGCAG | 3720 fluorescence intensity (a.u.)
9 | TTTGATTGTTTGTTTTAGAATGTGATCTTCATCAAATCATCGGAGTCACCTAGTGCAG | 41300 fluorescence intensity (a.u.)
10 | ACCGTGGATTGACGCGAGGGCGGTGCAGGGAACCCGGGGCCGGAGTCACCTAGTGCAG | 17800 fluorescence intensity (a.u.)
11 | CAAATTAAACAATTATCAGTTGAAGTAGAAGCTGGAATAGCGGAGTCACCTAGTGCAG | 9170 fluorescence intensity (a.u.)
12 | TATAAAATGATTTTCATGATAAATCTATCGATGCGGTTTTCGGAGTCACCTAGTGCAG | 14900 fluorescence intensity (a.u.)
13 | TTTTAATTGAAGTACAGCGATATTTACCAAATTTCGATCACGGAGTCACCTAGTGCAG | 33600 fluorescence intensity (a.u.)
14 | ATGAATGACAGTCATACTTGTGTTGAGTGCTAATCTGTCTCGGAGTCACCTAGTGCAG | 10700 fluorescence intensity (a.u.)
15 | ATAATTAAATGGGTCCCATTTATCAATCAAAATAATGCCACGGAGTCACCTAGTGCAG | 35000 fluorescence intensity (a.u.)
16 | TCCTCTCAAATTAAACTCCCAAATTAATTAAAGAGAAGCACGGAGTCACCTAGTGCAG | 7860 fluorescence intensity (a.u.)
17 | CTGATTTGCTTGATTCAGATTGACAGCTCAATGCAAAACTCGGAGTCACCTAGTGCAG | 44300 fluorescence intensity (a.u.)
18 | CCAGCCATTTAGTCGTTAAATTAGAGATTAGAGAGTAGAGCGGAGTCACCTAGTGCAG | 4810 fluorescence intensity (a.u.)
19 | AATAAATAAAACTCAATCAATCATACGATAATACCATCTCCGGAGTCACCTAGTGCAG | 29700 fluorescence intensity (a.u.)
20 | TTGTAATTAGTGTATGTTTAATACTCTAAATTAGTGTCCACGGAGTCACCTAGTGCAG | 32500 fluorescence intensity (a.u.)
21 | GTTCAAATTTGTAGTAATAGATTATGTCATATCCAATACTCGGAGTCACCTAGTGCAG | 18700 fluorescence intensity (a.u.)

Row | Sequence | binding signal
22 | CCGCAAATTGCGTATTTCAAGCGGTTTCTGATTTGCCTTTCGGAGTCACCTAGTGCAG | 14700 fluorescence intensity (a.u.)
23 | ACCAAAATTGGAAGTTTGGTTGAAATTGGGACGATGAACGCGGAGTCACCTAGTGCAG | 10500 fluorescence intensity (a.u.)
24 | GTATATAAAATTTTATTCACAAATTAGTTTTCGTTTGCAACGGAGTCACCTAGTGCAG | 3910 fluorescence intensity (a.u.)
25 | GCCTTAACTCGCATCATCAAGTCACTCATCAAGCGAAGCACGGAGTCACCTAGTGCAG | 4780 fluorescence intensity (a.u.)
26 | GTATCTTAATGATTTGTTTAAAATATTACTAGTATCTTAACGGAGTCACCTAGTGCAG | 8280 fluorescence intensity (a.u.)
27 | GTAATTAGCTAATCAATCTTTTCGGCTGTGCTTAATTAACCGGAGTCACCTAGTGCAG | 33500 fluorescence intensity (a.u.)
28 | ATCTGCAATCAAATCAACGCTATATATGCACCGAGACACACGGAGTCACCTAGTGCAG | 10300 fluorescence intensity (a.u.)
29 | GATTAATTGAATTATGATTTGTCTCATCTAGTAAAATGTTCGGAGTCACCTAGTGCAG | 47500 fluorescence intensity (a.u.)
30 | ACTAATTAGACTTAAAAGATTTGTCTCATGATTTACTCCCCGGAGTCACCTAGTGCAG | 56300 fluorescence intensity (a.u.)
31 | GCAGGAATTTTCCATGGACTAATTAAAAGTTTAATTAGTTCGGAGTCACCTAGTGCAG | 6050 fluorescence intensity (a.u.)
32 | AGCTAGCTAATTAGTTACCACGTACGAACGAGTACTTTACCGGAGTCACCTAGTGCAG | 10800 fluorescence intensity (a.u.)
33 | CCTTGAGATGTTTTGTGATTGATGAAAAGGTCTGCTGTATCGGAGTCACCTAGTGCAG | 25400 fluorescence intensity (a.u.)
34 | ATCTTTAGTCAATAAATTTTAAATTTTAGAAGTCTGTGTACGGAGTCACCTAGTGCAG | 4840 fluorescence intensity (a.u.)
35 | GAGTATTAATTGTACATAATCAATTGAGTATTAATTATTACGGAGTCACCTAGTGCAG | 18500 fluorescence intensity (a.u.)
36 | TCAACTAATGAATTAATCTATTTGATCAACTCCTATAAATCGGAGTCACCTAGTGCAG | 9630 fluorescence intensity (a.u.)
37 | CGTTGTTTTGATTATGATATCACAACTTCAAACATTCTTTCGGAGTCACCTAGTGCAG | 6500 fluorescence intensity (a.u.)
38 | TTTCAAAATTTATGTCAAAATTTTCTGCACTAATTATTTACGGAGTCACCTAGTGCAG | 7840 fluorescence intensity (a.u.)
39 | ATCTAGATGGAGTTAACATTTTATAAATATGTTTGGCTTGCGGAGTCACCTAGTGCAG | 3510 fluorescence intensity (a.u.)
40 | AATAATAAATTAAAATAGCCTTTACCGGTGCAACGCACGACGGAGTCACCTAGTGCAG | 10600 fluorescence intensity (a.u.)
41 | ATATATATATATATATATATATATATGCAGCAACAGGGCCCGGAGTCACCTAGTGCAG | 43100 fluorescence intensity (a.u.)
42 | TTAAACCGTTTGATTGGTAGGGGAAATGAGGTGGCCGCCGCGGAGTCACCTAGTGCAG | 26400 fluorescence intensity (a.u.)
